# The campaign covered roughly 310,000 compounds. About 2,200 (0.71%) showed an effect of 50% or more. Effects have a minus sign here. The list shows a part of the results.
# Molecular target: human ether-à-go-go-related gene (hERG) potassium channel (human, UniProt Q12809)
# Assay: primary screen, population patch clamp on CHO cells stably expressing hERG
# Sequence of human ether-à-go-go-related gene (hERG) potassium channel (Q12809 whole entry, looked up): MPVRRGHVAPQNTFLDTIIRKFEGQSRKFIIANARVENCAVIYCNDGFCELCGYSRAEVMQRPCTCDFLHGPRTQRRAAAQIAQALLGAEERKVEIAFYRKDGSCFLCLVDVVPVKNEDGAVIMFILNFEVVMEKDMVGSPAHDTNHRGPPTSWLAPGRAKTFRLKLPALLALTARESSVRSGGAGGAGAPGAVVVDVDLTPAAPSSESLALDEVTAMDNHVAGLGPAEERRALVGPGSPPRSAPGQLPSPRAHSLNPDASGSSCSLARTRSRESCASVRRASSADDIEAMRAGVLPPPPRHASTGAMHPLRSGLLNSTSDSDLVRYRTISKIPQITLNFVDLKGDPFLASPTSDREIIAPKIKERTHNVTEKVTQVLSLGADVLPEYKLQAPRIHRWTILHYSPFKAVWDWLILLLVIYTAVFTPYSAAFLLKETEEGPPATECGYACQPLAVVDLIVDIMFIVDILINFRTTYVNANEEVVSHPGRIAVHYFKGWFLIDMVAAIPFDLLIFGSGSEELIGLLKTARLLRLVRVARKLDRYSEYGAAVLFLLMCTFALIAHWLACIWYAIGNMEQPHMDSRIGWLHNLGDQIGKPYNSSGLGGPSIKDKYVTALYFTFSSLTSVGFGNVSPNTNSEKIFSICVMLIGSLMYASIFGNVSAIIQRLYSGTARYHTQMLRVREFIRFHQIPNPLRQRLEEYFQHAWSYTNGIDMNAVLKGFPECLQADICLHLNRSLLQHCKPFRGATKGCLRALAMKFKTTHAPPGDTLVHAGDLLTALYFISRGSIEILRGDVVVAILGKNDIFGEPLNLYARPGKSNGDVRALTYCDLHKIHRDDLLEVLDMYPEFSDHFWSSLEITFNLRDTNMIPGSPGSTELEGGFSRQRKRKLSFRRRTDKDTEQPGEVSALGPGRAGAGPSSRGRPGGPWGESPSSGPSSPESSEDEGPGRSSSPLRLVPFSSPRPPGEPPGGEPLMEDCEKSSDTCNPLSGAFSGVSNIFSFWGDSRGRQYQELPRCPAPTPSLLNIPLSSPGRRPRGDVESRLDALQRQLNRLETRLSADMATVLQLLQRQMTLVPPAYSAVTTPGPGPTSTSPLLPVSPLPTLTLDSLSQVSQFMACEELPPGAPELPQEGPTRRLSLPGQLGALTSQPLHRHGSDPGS
row,SMILES,"hERG current change (%, negative = inhibition) at 1uM [%]"
1,O=C(CN1C(=O)NC2(CCCCC2)C1=O)Nc1cccc(S(=O)(=O)N2CCOCC2)c1,9.68
2,Cc1cc(C)n2nc(-c3cnn(C)c3C(F)(F)F)c(Cl)c2n1,-6.07
3,COc1ccc(C(=O)C[n+]2ccccc2C)cc1.[Br-],11.7
4,Cc1ccc(SCC(=O)NNC(=O)c2ccccc2)cc1C,14
5,COc1ccc(NC(=O)CSc2nc3[nH]c(=O)cc(O)c3s2)c(OC)c1,18.5
6,CC(C)(C)NC(=O)CN(Cc1cccs1)C(=O)C1COc2ccccc2O1 (centres unmarked),9.73
7,CCN(CC(=O)Nc1c(F)cccc1F)C(=O)c1cnc(C)cn1,7.97
8,CCCN(CCC)C(=S)Nc1cc(C(=O)OC)ccc1C(=O)OC,-0.668
9,CCOc1cc(/C=C(\C#N)C(=O)NCC2CCCO2)ccc1O (centres unmarked),-1.27
10,O=c1c(-c2ccc(Br)cc2)[n+]([O-])c2ccccc2n1OCc1ccccn1,7.05
11,CCCCn1c(O)c(C(C)=NCCCN(C)C)c(=O)[nH]c1=O,13.9
12,COc1ccccc1-c1nnc2sc(COc3ccc(Cl)cc3Cl)nn12,0.358
13,O=C(COc1ccc(F)cc1)Nc1c(C(=O)N2CCC(N3CCCCC3)CC2)oc2ccccc12,-33.8
14,COCCNC(=O)c1ccc(NS(=O)(=O)c2ccc3[nH]c(=O)[nH]c3c2)cc1,14.8
15,COc1ccccc1CN1C[C@@H]2C[C@@H](c3cccc(C)n3)N3CCC[C@@]23C1=O,11.5
16,Cc1ccc(C(=O)NC2CCN(S(=O)(=O)c3ccccc3)CC2)cc1,-0.148
17,CCC(C)(C(=O)NC1CCCCC1)N(C(=O)c1cnccn1)c1c(C)n(C)n(-c2ccccc2)c1=O (centres unmarked),11
18,CC(C)N(C1=CC(=O)OC12CCCCC2)C(C)C,7.72
19,O=C(Nc1cccc(-c2nc3ccccc3c(=O)o2)c1)c1ccccc1,15.6
20,CC1=C(C(=O)OC(C)C)[C@]2(C(=O)N(CC(N)=O)c3ccccc32)C(C#N)=C(N)O1,13.8
21,CCNc1c([N+](=O)[O-])c(=O)n(CC)c2ccccc12,9.75
22,Oc1ccc(C(=S)N2CCCC2)cc1,13
23,CC(NC(=O)c1cn(C)c2ccc(S(=O)(=O)N3CCCC3)cc2c1=O)c1ccc2c(c1)OCCO2 (centres unmarked),17.3

row,SMILES,"hERG current change (%, negative = inhibition) at 1uM [%]"
1,COc1cc(C(C)=O)ccc1OCC(=O)NCC1(N2CCCCC2)CCCCC1,7.69
2,O=C(Nc1ccc(F)cc1)N1CCN(CCc2ccccc2)CC1,-9.52
3,CCOc1ccc(OCc2ccc(C(=O)N/N=C(\C)c3ccccn3)cc2)cc1,18
4,COc1ccc(C(=O)NCC(=O)OCC(=O)c2ccc3c(c2)NC(=O)CO3)cc1OC,19.3
5,Cc1ccc(C(c2sc3nc(C)nn3c2O)N2CCOCC2)cc1 (centres unmarked),11
6,Cc1ccccc1NC(=O)COc1nsnc1N1CCOCC1,7.78
7,CCC1(c2ccccc2)NC(=O)N(CC(=O)Nc2ccc(S(=O)(=O)N3CC(C)CC(C)C3)cc2)C1=O (centres unmarked),17.4
8,COc1cccc(NC(=O)CN(C)C(=O)c2cccc(S(=O)(=O)N3CCN(c4ccccc4)CC3)c2)c1,8.29
9,CCc1cccc(CC)c1NC(=O)CN1CCN(c2ccccc2)CC1.Cl,5.34
10,CC(C)(C)c1ccc(C(=O)c2c[nH]c(C(=O)O)c2)cc1,10.8
11,O=C(CN1C(=O)c2ccccc2S1(=O)=O)N1CCN(Cc2ccc3c(c2)OCO3)CC1,2.9
12,Cc1nn(-c2ccc(F)cc2)c(Cl)c1/C=C/C(=O)N1CCNC(=O)C1,8.9
13,O=C(Nc1ccccc1N1CCN(c2ccccc2)CC1)C12CC3CC(CC(C3)C1)C2,-4.28
14,O=C(NCc1ccccc1)c1nc2ccccc2s1,16.5
15,Cc1ccc(C(=O)NCCSc2snnc2C)cc1,15.5
16,Cc1cc(C)cc(C(=O)NCC(=O)OCC(=O)NCc2ccco2)c1,5.8
17,COc1ccc(-c2noc(CCC(=O)N3CCN(c4cc(C)ccc4C)CC3)n2)cc1,5.56
18,CC(C)[C@H](NC(=O)c1ccccc1)C(=O)OCC(=O)N1CC2(C)CC1CC(C)(C)C2 (some centres unmarked),-5.59
19,CCOc1ccc(CNC(=O)C(=O)c2cn(CC(=O)N3CCOCC3)c3ccccc23)cc1OC,9.36
20,O=c1nc2ccccc2c2n1CC(CN1CCN(c3ccccc3F)CC1)N2 (centres unmarked),-20.7
21,O=C(CSc1ncccn1)NC1CCS(=O)(=O)C1 (centres unmarked),3.19
22,c1cncc(Nc2nc(-c3cccnc3)cs2)c1,5.1
23,CC1C(=O)N2CCCc3cc(NC(=O)COc4ccccc4)cc1c32 (centres unmarked),-3.46

row,SMILES,"hERG current change (%, negative = inhibition) at 1uM [%]"
1,CCOc1ccccc1OCC(=O)NNC(=O)Cn1cnc2c1c(=O)n(C)c(=O)n2C,14.2
2,COc1ccc(/C(N)=N/OC(=O)c2cccc([N+](=O)[O-])c2)cc1,12.8
3,CCNC(=O)NC(=O)C(C)OC(=O)c1oc2ccc(OC)cc2c1C (centres unmarked),9.73
4,Cc1ccc(C(=O)NCc2ccco2)cc1S(=O)(=O)Nc1cccc(Cl)c1,3.98
5,Cc1cc(C)cc(NC(=O)CSc2nnc(CNC(=O)c3ccco3)o2)c1,16.4
6,O=C(NCCc1ccccc1)[C@@H]1CC=C[C@@H]2CCN(C3CCCCC3)C(=O)[C@@H]21,14.5
7,CC1=C(C)CC(C(=O)Nc2nc(-c3ccc(F)cc3)c(C)s2)C(C(=O)O)C1 (centres unmarked),17.3
8,CCOC(=O)c1c(/N=C/C2C(=O)CCCC2=O)sc2c1CCCC2,8.94
9,Cc1ccc(N2C(=O)c3ccccc3C(C)(C)C2=O)cc1,9.83
10,CNCCOc1nc(N2CCOCC2)nc(C)c1[N+](=O)[O-],10.1
11,O=C(CSc1nc2ccccc2s1)NC1CCS(=O)(=O)C1 (centres unmarked),11.8
12,S=C(NC1CC1)SCc1ccco1,5.89
13,COc1ccc(S(=O)(=O)N2CCC(C(=O)NCc3ccncc3)CC2)cc1,8.11
14,COc1ccc(NC(=O)/C(C#N)=C/c2c(C)nn(-c3ccc(F)cc3)c2Cl)cc1OC,5.41
15,Cc1c(C(=O)NN)sc(=S)n1C,12
16,O=[N+]([O-])c1cccc(C(=S)N2CCCC2)c1,10.8
17,O=C(NCc1cccs1)C1CCCN1C(=O)Nc1ccccc1Cl (centres unmarked),10.5
18,COCCNc1nnc(SCC(=O)NC(=O)c2ccccc2OC)s1,11.2
19,COc1ccc(C2C(C(=O)N3CCCCC3)c3ccccc3C(=O)N2C)cc1 (centres unmarked),9.56
20,Cc1nnc(NCCc2ccccc2)[nH]c1=O,-16.7
21,COc1cccc(OC)c1C(=O)Nc1ccc(C)cc1C(=O)c1ccccc1,16.8
22,COc1cccc(CNC(=O)CCS(=O)(=O)c2ccc3c(c2)oc(=O)n3C)c1,15.3
23,CCn1c(SCC(=O)Nc2nc(-c3ccccc3)cs2)nnc1-c1ccccc1,-13.3

row,SMILES,"hERG current change (%, negative = inhibition) at 1uM [%]"
1,CCCC(C)NC(=O)c1ccc(F)cc1 (centres unmarked),12.3
2,Fc1ccc(Nc2ccnc(Nc3ccc(F)cc3)n2)cc1,14.4
3,Nc1nc(-c2ccccc2)c(-c2ccccc2)s1,12.2
4,COc1cccc(N2CCN(c3cnc4ccccc4n3)CC2)c1,4.79
5,CC(C)(C)NC(=O)Cn1c(-c2nonc2N)nc2ccccc21,11.2
6,Cc1ccc(C(=O)c2c(NC(=O)c3ccncc3)sc3c2CCCC3)cc1,12
7,COc1cccc(CNS(=O)(=O)c2cc3c(cc2C)n(C)c(=O)c(=O)n3C)c1,2.13
8,O=C(CN1C(=O)NC2(CCCCCC2)C1=O)NCCc1ccccc1,12.9
9,O=C(Cc1ccccc1)N1CCN(C2CCCCCC2)CC1.O=C(O)C(=O)O,4.29
10,CSc1nc(Cl)cc(Nc2ccccc2N)n1,10.4
11,Cc1cccc(NC(=O)C2CCN(S(=O)(=O)c3ccc4c(c3)NC(=O)CO4)CC2)c1C,15
12,CCN(CC)CCNC(=O)c1ccc(NC(=O)c2ccccc2-c2ccc(C(F)(F)F)cc2)cc1,-1.19
13,O=C(NCC1OCCc2ccccc21)C1COc2ccccc2O1 (centres unmarked),10
14,COCCSc1ccccc1C(=O)Nc1ccc(Cl)cn1,0.534
15,Oc1c(Br)cc(/C=N/NC(=S)NCc2ccco2)cc1Br,21.2
16,CC(=O)Nc1cccc(NC(=O)c2oc3ccccc3c2C)c1,-4.04
17,COC(=O)c1ccc(NC(=O)CNCc2ccncc2)cc1.O=C(O)C(=O)O,13.9
18,O=C(O)CCCC(=O)Nc1ccc(N2CCCC2)cc1,9.63
19,CCn1c(SCC(=O)N(C)c2c(N)n(Cc3ccccc3)c(=O)[nH]c2=O)nc2ccccc21,11.6
20,CCOc1ccc(NC(=O)CN(C)C(=O)c2cn(-c3ccccc3)nc2-c2cccs2)cc1OCC,3.71

# Source: article PMC4336329 (PLoS ONE, 2015)
